# Experimental data taken from PubChem BioAssay AID485364 (National Center for Advancing Translational Sciences (NCATS), 2010).
# Out of some 360,000 compounds screened, about 11,000 (3.1%) were called active. The inconclusive results got no clear call from the source; some entries with a clear call stand among them for comparison. Calls come from the whole dose curve; as a rule, active = well fitted inhibition curve with a large enough effect; inconclusive = small, poorly fitted or top-dose-only effect; inactive = no such curve, though single readings can be large or run the other way. No potency is given beside an inconclusive call; the fits are too rough.
# Biological target: Schistosoma mansoni thioredoxin glutathione reductase (TGR) (UniProt Q962Y6)
# Assay: qHTS Assay for the Inhibitors of Schistosoma Mansoni Peroxiredoxins; note: nearly all actives have a fitted effect of over 60% in size
# Conditions: purified TGR, DTNB reduction, TNB absorbance 405 nm; activity change, negative = inhibition: at 114 µM (top of the series) unless noted
# Procedure, shortened: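 Kinetic colorimetric format: TGR-catalysed, NADPH-driven DTNB reduction monitored via TNB absorbance. Enzyme dispensed at 20 nM; compound exposure 15 min at room temperature before reaction start.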
# % is set by controls: 0 for no effect and ±100 for the full control effect; potency is the fitted concentration of half-maximal effect; tags give direction and shape of the fitted curve.
SMILES,Potency,"activity change, negative = inhibition"
CN1CCN(C(=O)Nc2ccccc2CC[N+](=O)[O-])CC1,active: 31.6 µM,
CC1(C)Cc2c(sc(NC(=O)/C=C/C(=O)O)c2C#N)CO1,"inconclusive [inhibitor, partial curve]",
COc1cc(CNCCc2ccccc2F)ccc1OCC(=O)N1CCCCC1,"inconclusive [inhibitor, single point]",
O=C(Nc1c(Cl)ccc2nsnc12)c1ccc([N+](=O)[O-])o1,"inconclusive [inhibitor, partial curve]",
CCS(=O)(=O)Nc1cccc(C2=NN(S(C)(=O)=O)C(c3cccs3)C2)c1 (stereo not given),"inconclusive [inhibitor, full curve, poor fit]",
O=C(Oc1ccc2c(=O)c(Oc3ccc4ccccc4c3)coc2c1)c1cncc(Br)c1,,inactive: -2.95%
COc1ccc(CN2CCN(C(=O)CCC(=O)c3ccc(C)s3)CC2)cc1OC,"inconclusive [inhibitor, partial curve]",
COc1ccc([C@@H]2[C@@H]3C(=O)N(C(C)(C)C)C(=O)[C@@H]3[C@]3(Cc4ccccc4)C(=O)N(c4ccc(C)cc4)C(=O)N23)cc1,,inactive: -7.96%
CCOc1ccc(N2C(=O)C3C4C=CC(CC4)C3C2=O)c([N+](=O)[O-])c1 (stereo not given),active: 50.1 µM,
Cc1ccc(S(=O)(=O)n2ccc(OC(=O)c3cccs3)n2)cc1,active: 6.31 µM,
O=C(OCCCOC(=O)c1ccccc1O)c1ccccc1O,,inactive: -15.1%
CSc1nc(NCc2ccco2)c2sc3nc(C(C)C)c4c(c3c2n1)CC(C)(C)OC4,"inconclusive [inhibitor, single point]",
C[C@@]12CCC=C[C@H]1[C@H](c1ccc(F)c(/C=C/c3ccccc3)c1)N(Cc1ccccc1)C2=O,"inconclusive [inhibitor, partial curve]",
Cc1nc2ccccn2c1C(=O)N=Nc1c(O)[nH]c2ccccc12,,inactive: -3.07%
OCCC1CN(C2CCN(c3ccccc3)CC2)CCN1Cc1ccc(F)c(F)c1 (stereo not given),,inactive: -4.81%
CC(C)Oc1ccc(S(=O)(=O)N2CCOCC2)cc1NC(=O)C1COc2ccccc2O1 (stereo not given),,inactive: 1.52%
COc1ccc(N(Cc2cc3ccc(C)cc3[nH]c2=O)C(=O)c2ccco2)cc1,"inconclusive [inhibitor, partial curve]",
CN(CCOc1ccccc1)CC(=O)Nc1ccc(S(=O)(=O)N2CCCC2)cc1,,inactive: -7.85%
C=CCn1c(SCC(=O)c2ccc(O)c(O)c2)nnc1-c1cccnc1,"inconclusive [inhibitor, partial curve]",
Cc1ccc(S(=O)(=O)N2CCN(C(=O)Cn3nc(C)c([N+](=O)[O-])c3C)CC2)cc1,"inconclusive [inhibitor, partial curve, poor fit]",
